# From the BET-seq Pho4 binding data (Le et al. 2018)
# The other results are listed elsewhere or left out. The energies were worked out here from pooled read counts, against the library average; single values are noisy.
# Target: T1, Pho4 (S. cerevisiae) (UniProt P07270)
# T1 sequence: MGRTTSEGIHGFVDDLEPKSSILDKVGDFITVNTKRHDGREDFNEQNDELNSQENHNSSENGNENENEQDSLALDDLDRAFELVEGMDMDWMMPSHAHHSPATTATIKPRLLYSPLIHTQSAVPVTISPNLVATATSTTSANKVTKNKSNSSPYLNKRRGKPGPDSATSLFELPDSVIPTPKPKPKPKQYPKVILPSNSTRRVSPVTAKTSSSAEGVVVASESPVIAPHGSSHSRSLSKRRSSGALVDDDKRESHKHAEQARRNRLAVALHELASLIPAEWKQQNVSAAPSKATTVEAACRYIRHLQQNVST
# Experiment: relative binding free energy (BET-seq); higher = weaker binding
# Settings: reference: library average
row,Sequence,relative binding free energy [kcal/mol]
1,ATTCACACGTGGGGTA,-0.11
2,GGAGTCACGTGGGTTC,0.08
3,AATTGCACGTGTAGGG,-0.07
4,GGTTTCACGTGACGTG,0.25
5,ATTGGCACGTGGCTTA,-0.19
6,TTAGGCACGTGTTCGC,-0.14
7,GTGTGCACGTGGGTCT,-0.1
8,ATGGGCACGTGCTTGC,-0.19
9,ATCGGCACGTGTGGCG,0.04
10,TTGGGCACGTGGGGTA,-0.14
11,TAGGACACGTGTCCGG,0.21
12,ATTGCCACGTGTATGA,-0.02
13,GTTGGCACGTGTGCCT,-0.02
14,TTGGTCACGTGTATGT,0.06
15,TTGTACACGTGAGATT,0.22
16,GTGGGCACGTGTAATG,0.09
17,AAATTCACGTGCGTGT,0.14
18,CGAGTCACGTGTTTGT,0.21
19,GGTAGCACGTGGAAGT,0.07
20,CGTGTCACGTGGTTAG,0.03
21,GCGGGCACGTGAGGGT,0.23
22,AATGACACGTGGGGTG,-0.13
23,AAAGACACGTGCGGGG,0
24,GGTGTCACGTGTTGTA,0.07
25,GAATTCACGTGGGTTT,0.22
26,TATTACACGTGCTGGT,0.17

row,Sequence,relative binding free energy [kcal/mol]
1,GTAATCACGTGAATGG,0.25
2,CGTTTCACGTGGATAG,0.35
3,TGGGTCACGTGGAATC,0.3
4,TATGGCACGTGTTTGT,-0.1
5,TAGTCCACGTGTGTTA,-0.11
6,TGAGGCACGTGTATCT,-0.08
7,TTTATCACGTGGATCT,0.12
8,AGGAGCACGTGGATGG,-0.1
9,TCAGGCACGTGGGAAG,-0.26
10,GGTGACACGTGAGGCG,0.23
11,GTAGTCACGTGATGCA,0.3
12,ATGATCACGTGGGTGC,-0.04
13,ATTAGCACGTGCGGAG,-0.1
14,AGGTTCACGTGTACTG,0.15
15,TATGTCACGTGGTAAC,-0.03
16,TATGGCACGTGTTCAT,-0.25
17,TGCGACACGTGTGGAA,0.14
18,TTCAGCACGTGATTTT,0.12
19,GAATACACGTGTGATT,0.26
20,GCGTGCACGTGCTAGT,0.1
21,GCGTTCACGTGAGGGT,0.45
22,TGGGGCACGTGGGCTA,-0.14
23,TAATACACGTGTTTAG,0
24,GATTGCACGTGGCGGT,-0.09
25,ATTTTCACGTGGAAGT,0.26
26,TGCTACACGTGGGAGG,0.04

row,Sequence,relative binding free energy [kcal/mol]
1,GTTTACACGTGTTTCT,0.25
2,CGTTGCACGTGGGTAG,-0.18
3,GGGGGCACGTGGACAG,-0.16
4,GTATGCACGTGAATGT,0.22
5,TTAGTCACGTGATAGG,0.15
6,AAATGCACGTGTGCTT,0.05
7,GGAAACACGTGGGGCT,-0.22
8,GGGCGCACGTGTGTAA,0.11
9,GTAAGCACGTGAGTGA,0.14
10,TGGTGCACGTGCTGCT,-0.26
11,AATGGCACGTGTCGAG,-0.04
12,ATAGGCACGTGAATTT,0.16
13,TTTAACACGTGGCGGC,-0.01
14,TGTTTCACGTGTCTGG,0.23
15,TGTGCCACGTGAGGTC,0.12
16,GCGTTCACGTGGCTGG,0.23
17,GTAGTCACGTGGATGT,0.2
18,CAGGGCACGTGGGTGA,-0.39
19,TGTAGCACGTGAAGTG,0.2
20,TAACGCACGTGGTGTT,-0.29
21,GTTAGCACGTGAGCGG,0.25
22,TCTAGCACGTGGATTG,0.06
23,TGCGTCACGTGGAGGC,0.03
24,ATATACACGTGGTGGT,-0.03
25,ATTTTCACGTGTGACA,0.21
26,ATTCGCACGTGCGTGT,-0.09

row,Sequence,relative binding free energy [kcal/mol]
1,TTTATCACGTGTTGTC,0.15
2,TCAGTCACGTGTGGGA,0
3,GTGCGCACGTGTGGTG,0.05
4,GTGGACACGTGTCTGG,-0.07
5,TGTAACACGTGAGGCA,0.4
6,GGTGTCACGTGTTTTT,0.34
7,CTTTTCACGTGTTAAG,0.18
8,ACGGTCACGTGTTTAT,0.07
9,TTGTTCACGTGATGGC,0.31
10,GTCATCACGTGGGCGG,0.13
11,GTAGGCACGTGTGGTC,0.06
12,TGGTTCACGTGTACGC,0.35
13,GTTCCCACGTGGGTGG,-0.26
14,GTAAGCACGTGGGTAC,-0.05
15,ATTATCACGTGTAATG,0.3
16,ATGTACACGTGTACGT,0.11
17,GCCAGCACGTGGTGGG,-0.25
18,TAGTTCACGTGATGGG,0.4
19,TGCTTCACGTGATGTA,0.22
20,AAATTCACGTGGTGAG,0.26
21,ATCATCACGTGAGGGT,0.25
22,TCATTCACGTGTGGGG,0.46
23,GGATGCACGTGAGCTG,0.16
24,GGTATCACGTGCGAGA,0.39
25,TTAATCACGTGTTTGG,0.14
26,TTTGTCACGTGGACGG,0.14

row,Sequence,relative binding free energy [kcal/mol]
1,TTCGGCACGTGGTGAA,-0.02
2,CGGCTCACGTGAAGGT,0.3
3,TGTCTCACGTGACGTG,0.17
4,ATATGCACGTGCTCGT,0.02
5,GAGAGCACGTGTATGG,-0.08
6,AGGTGCACGTGCGTGC,-0.24
7,GGTTTCACGTGGCGTA,0.18
8,ATGCACACGTGTGTTG,0
9,ATCGTCACGTGGGTAA,-0.11
10,GTTCGCACGTGAGTAT,0.15
11,AGTTGCACGTGTTTGT,-0.06
12,TGTTGCACGTGGCTCA,-0.01
13,GGGTGCACGTGGTCTG,-0.04
14,AGGAGCACGTGTAGAG,-0.04
15,TGGGGCACGTGGAATT,0.02
16,TATGGCACGTGATTGG,0.02
17,GTCGGCACGTGAGTTT,0.23
18,ATGAGCACGTGTTATC,0.09
19,GTTAGCACGTGCTTGG,-0.09
20,GCAAGCACGTGTGGTT,-0.05
21,TTTCTCACGTGGATTG,0.25
22,GGTGACACGTGTAATT,0.24
23,ATTGGCACGTGCAGGA,-0.16
24,CGTGGCACGTGTGCTG,-0.19
25,CATGGCACGTGAAGGG,0.22
26,TGTTTCACGTGCTATG,0.29

row,Sequence,relative binding free energy [kcal/mol]
1,TTTCCCACGTGGGGTT,-0.2
2,CGTGTCACGTGTTCGG,0.11
3,GACAACACGTGTGGTG,0.14
4,AAATACACGTGTTATG,0.13
5,TGGGTCACGTGCTTCG,0.21
6,TTATGCACGTGGGTGA,-0.18
7,AGGTACACGTGGGGGG,-0.08
8,TAATACACGTGGGGGT,-0.05
9,TGGTCCACGTGGGTGG,-0.11
10,GAATTCACGTGTGTGT,0.38
11,TTCGTCACGTGGTGTA,0.09
12,TGGGTCACGTGTAGCA,0.14
13,GTGGACACGTGGGAAT,0.08
14,GTTATCACGTGTGCTT,0.15
15,TATGACACGTGTGGCA,0.11
16,AGTTCCACGTGTGAGT,0.01
17,TGGTGCACGTGCAATT,0.05
18,TCGGTCACGTGGGTAC,-0.02
19,AAAGGCACGTGAATTG,0.24
20,ATTGTCACGTGTGTTT,0.08
21,CAGTCCACGTGGTGTG,-0.16
22,TTACTCACGTGAGTGT,0.19
23,GGAGTCACGTGCGGGA,0.09
24,GGTTGCACGTGCAGAG,0.02
25,TGGTGCACGTGATTTT,0.13
26,TGCGGCACGTGTGGGA,0.04

row,Sequence,relative binding free energy [kcal/mol]
1,TGGAGCACGTGTTTCA,-0.13
2,TGGTTCACGTGAGGTC,0.45
3,GTAGTCACGTGCAAGT,0.17
4,CGTTACACGTGTCGGT,0.23
5,GGTGGCACGTGGAGCA,-0.2
6,GACCGCACGTGTTGGG,0.09
7,CTGTGCACGTGTGCGT,-0.01
8,GTCTGCACGTGTAAGG,0.21
9,AATATCACGTGTGGAA,0.15
10,GGCCGCACGTGGTGGG,-0.07
11,GATTCCACGTGGTATG,0.1
12,CTTAACACGTGGTTTT,0.04
13,TGTGCCACGTGTCTGT,-0.16
14,GGAGTCACGTGCGGCG,0.04
15,ATCAGCACGTGGTATG,-0.17
16,ATTATCACGTGTGTTA,0.15
17,CGAGGCACGTGCGGTT,0
18,GTGGTCACGTGGTACA,-0.04
19,TTTCGCACGTGTCGGG,0.03
20,AAGTGCACGTGGAAAT,0.12
21,GGGTACACGTGCAGAG,0.1
22,GCGAGCACGTGGTATG,-0.24
23,GGATTCACGTGATGCA,0.43
24,CTTTTCACGTGGGCGT,0.06
25,TGTCGCACGTGAAGAG,0.2
26,GATTACACGTGTGGTG,0.18

row,Sequence,relative binding free energy [kcal/mol]
1,TGTCACACGTGTGTGA,0.01
2,TTGATCACGTGAGAGG,0.43
3,GTGTGCACGTGTCGTA,0.03
4,CGTGTCACGTGGGGCG,0.01
5,CATTCCACGTGTGGGT,0.1
6,GTGCACACGTGGAGTG,0.15
7,TGCAACACGTGAGCGG,0.48
8,TAGGGCACGTGATGGA,0.11
9,GGAAACACGTGTGGGG,0.04
10,AGAGTCACGTGTAACG,0.39
11,AGGATCACGTGTTCTT,0.23
12,GTCCGCACGTGTGTTG,0
13,TCATTCACGTGCTGGG,0.23
14,TTGTGCACGTGCATTA,-0.15
15,AGTTGCACGTGTGGCG,0.13
16,CAAGTCACGTGGAGGA,0.19
17,TGCAACACGTGTGGTG,-0.09
18,GGTCGCACGTGCGGAA,0.2
19,TATAACACGTGGTTTA,-0.09
20,TTCTACACGTGAGTTT,0.34
21,GGGTACACGTGTTTTC,0.29
22,GGGAGCACGTGAGTCT,0.12
23,ATGTTCACGTGTGGAC,0.28
24,ATTAGCACGTGCTTGA,-0.11
25,ATGCGCACGTGCTGTT,-0.06
26,GTGAACACGTGTTTTT,0.15

row,Sequence,relative binding free energy [kcal/mol]
1,GGTTGCACGTGGATTA,0.09
2,GGTATCACGTGAAGTT,0.49
3,GAAGTCACGTGCTGGT,0.06
4,CTGTTCACGTGTTTTA,0.18
5,GTTTCCACGTGTAGGA,0.17
6,TTGTACACGTGGTCTT,0.01
7,CAGGGCACGTGTGTAG,-0.12
8,TTAGGCACGTGGTGGG,-0.15
9,GGTGCCACGTGGATGA,-0.08
10,ATGAGCACGTGTAAAA,0.13
11,AAATTCACGTGGAGTG,0.41
12,TTAGGCACGTGTAAGG,0.04
13,TGGGGCACGTGGTCCT,-0.18
14,TGAGACACGTGGTAGG,-0.11
15,TTGGTCACGTGTTTAT,0.13
16,TGATCCACGTGGTTTG,-0.05
17,GTAACCACGTGGAGGT,0.01
18,ATAGGCACGTGAAGGC,0.07
19,AATCTCACGTGGAGTG,0.3
20,GGCGTCACGTGCTAGT,0.12
21,TGTAACACGTGACGTT,0.19
22,AATCTCACGTGAGGTG,0.32
